For this assay, the target named is T1, IscS, cysteine desulfurase of the ISC system (E. coli), P0A6B7.
T1 chain: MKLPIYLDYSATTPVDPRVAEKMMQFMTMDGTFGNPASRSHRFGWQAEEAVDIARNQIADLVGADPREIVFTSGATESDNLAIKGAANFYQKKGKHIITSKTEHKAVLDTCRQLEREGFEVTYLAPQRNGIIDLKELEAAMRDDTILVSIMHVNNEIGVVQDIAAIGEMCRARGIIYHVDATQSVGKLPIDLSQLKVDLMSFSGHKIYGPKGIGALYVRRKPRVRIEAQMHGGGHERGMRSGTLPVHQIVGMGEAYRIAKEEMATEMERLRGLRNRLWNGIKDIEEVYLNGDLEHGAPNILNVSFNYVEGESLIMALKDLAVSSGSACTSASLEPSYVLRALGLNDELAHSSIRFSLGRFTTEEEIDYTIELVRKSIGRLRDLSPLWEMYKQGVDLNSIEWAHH
Kind of assay: native MS; desulfurase alone, ~8 uM (~4 uM dimer), 250 mM ammonium acetate pH 8.0, deconvoluted spectrum. To be noted: remark: other sources report otherwise.

B1: IscS, cysteine desulfurase of the ISC system, P0A6B7 1-404 (enzyme)
chain: T1 chain
Molecule B1 returned a stoichiometry N of 2.

Broadly, the stoichiometry N is the number of molecules, sites or subunits per partner or assembly.

The values above are taken from paper PMC11446229.
